Inconclusive results are not listed. Calls come from the whole dose curve; as a rule, active = well fitted curve in the direction sought with a large enough effect; inconclusive = small, poorly fitted or top-dose-only effect, or another doubt; inactive = no such curve, though single readings can be large; an effect the other way counts as inactive or inconclusive. Some compounds were tested as several samples or in several runs, with calls that do not always agree. A number of entries come with more than one value. They are shown here; other results are not. An entry can have further records. The values listed for one entry repeat one measurement (runs, samples, wells, individuals or studies). Marks in square brackets tell the records apart. Letters count within one entry.
Potency is the fitted concentration of half-maximal effect.

The first experiment in a line: qHTS of pediatric cancer cell lines to identify multiple opportunities for drug repurposing: Primary screen for OHS-50 cells (AID 1347103). Note: nearly all actives have a fitted effect of over 40% in size. The note with it: OHS-50 osteosarcoma viability, CellTiter-Glo luminescence, 48 h; series mostly up to 57.3 µM. The procedure, abridged:
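Cells (500-1,000/well) rested 5 h, then received compounds for 48 h; metabolically active cells were measured by CellTiter-Glo luminescence. Final concentrations spanned up to 46 µM (MIPE, 11-point) or 0.59 nM-46 µM (NPC, 8-point) in primary screens, 11-point in follow-ups.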
Background: qHTS replaces the single test concentration by a dilution series.
`O=C(NCC1CCCCN1)c1cc(OCC(F)(F)F)ccc1OCC(F)(F)F` (configuration not stated): the Potency entry is “active: 685 nM [sample A] and inactive [sample B]”. Consider `Cc1ccc(S(=O)(=O)NC(=O)NN2CC3CCCC3C2)cc1` (configuration not stated), for which the Potency entry is “inactive [sample A] and active: 21.7 µM [sample B]”.

`CC(C)c1nc(CN(C)C(=O)N[C@H](C(=O)N[C@@H](Cc2ccccc2)C[C@H](O)[C@H](Cc2ccccc2)NC(=O)OCc2cncs2)C(C)C)cs1`: the Potency entry is “active: 27.3 µM [sample A] and inactive [sample B]”.

As for `COCCCN1CCC(NC(=O)c2cc(Cl)c(N)c3c2OCC3)CC1`, the Potency result was “inactive [sample A] and active: 24.3 µM [sample B]”.

A further experiment can be described thus: qHTS of pediatric cancer cell lines to identify multiple opportunities for drug repurposing: Primary screen for RD cells (AID 1347104). Note: nearly all actives have a fitted effect of over 55% in size. The note with it: RD rhabdomyosarcoma viability, CellTiter-Glo luminescence, 48 h; series mostly up to 46 µM. The procedure, abridged:
(§1)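 Luminescence from CellTiter-Glo served as readout of metabolically active cells after 48 h compound exposure. Titrations: MIPE 11-point, from 0.78 nM; NPC 8-point, from 0.59 nM (final). Concentration-response curves came straight from the primary screen.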
Turning to `Cc1ccc(S(=O)(=O)NC(=O)NN2CC3CCCC3C2)cc1` (configuration not stated), the Potency result was “inactive [sample A] and active: 33.2 µM [sample B]”. The same measure, in the same setting: as for `Clc1ccc(C(Cn2ccnc2)OCc2ccc(Sc3ccccc3)cc2)c(Cl)c1` (configuration not stated), the entry is “inactive [sample A] and active: 33.2 µM [sample B]”; as for `Cc1cc2cc3c(C)cc(=O)oc3c(C)c2o1`, “inactive [sample A] and active: 29.6 µM [sample B]”; as for `CCCCC(CC)COC(=O)C(C#N)=C(c1ccccc1)c1ccccc1` (configuration not stated), “active: 26.4 µM [sample A] and inactive [sample B]”. Turning to `Clc1ccc(C(Cn2ccnc2)OCc2ccsc2Cl)c(Cl)c1` (configuration not stated), the Potency result was “inactive [sample A] and active: 37.2 µM [sample B]”.

Another experiment is described as follows: qHTS of pediatric cancer cell lines to identify multiple opportunities for drug repurposing: Primary screen for MG 63 (6-TG R) cells (AID 1347105). Note: nearly all actives have a fitted effect of over 50% in size. Conditions: MG 63 (6-TG R) viability, CellTiter-Glo, 48 h; series mostly up to 46 µM. The method in brief:
as §1
With `COC(=O)C1=C(C)NC(C)=C(C(=O)OC(C)C)C1c1cccc2nonc12` (configuration not stated), the Potency entry is “active: 23.5 µM [sample A] and inactive [sample B]”. Still for that read-out and setting: as for `CC(C)c1nc(CN(C)C(=O)N[C@H](C(=O)N[C@@H](Cc2ccccc2)C[C@H](O)[C@H](Cc2ccccc2)NC(=O)OCc2cncs2)C(C)C)cs1`, the entry is “active: 23.5 µM [sample A] and inactive [sample B]”; as for `c1ccc2[nH]c(-c3cscn3)nc2c1`, “inactive [sample A] and active: 14.8 µM [sample B]”.

For the origin of these results see PubChem BioAssay (NCATS).
